# The other results are listed elsewhere or left out.
# What was measured:
# Assay in all cases: glycan array binding signal (z-score within array); higher = stronger binding
# Conditions in all cases: glycan notation: IUPAC condensed, linker removed
# [1] = biological target: Gal(a1-3)Gal(b1-3)GlcNAc(b1-6)GalNAc
# How it was run: (§1)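 Glycan array data were curated from 3228 arrays in the Consortium for Functional Glycomics database and kept only where the protein sequence was available. Glycan names were converted to IUPAC-condensed notation, and columns mapping to the same glycan were averaged. The binding signal is a within-array Z-score, averaged across arrays of the same protein sequence at different concentrations or buffers and across linkers. Negative Z-scores can be read as non-binding.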
# [2] = biological target: Gal(a1-3)Gal(b1-3)[Fuc(a1-4)]GlcNAc(b1-2)Man(a1-3)[Gal(a1-3)Gal(b1-3)[Fuc(a1-4)]GlcNAc(b1-2)Man(a1-6)]Man(b1-4)GlcNAc(b1-4)GlcNAc
# How it was run: as §1
# [3] = biological target: Gal(a1-3)Gal(b1-4)Glc
# How it was run: as §1
# [4] = biological target: Gal(a1-3)Gal(b1-4)GlcNAc
# How it was run: as §1
# [5] = biological target: Gal(a1-3)Gal(b1-4)GlcNAc(b1-2)Man
# How it was run: as §1
# [6] = biological target: Gal(a1-3)Gal(b1-4)GlcNAc(b1-2)Man(a1-3)[Gal(a1-3)Gal(b1-4)GlcNAc(b1-2)Man(a1-6)]Man(b1-4)GlcNAc(b1-4)GlcNAc
# How it was run: as §1
# [7] = biological target: Gal(a1-3)Gal(b1-4)GlcNAc(b1-3)GalNAc
# How it was run: as §1
# [8] = biological target: Gal(a1-3)Gal(b1-4)GlcNAc(b1-6)GalNAc
# How it was run: as §1
# [9] = biological target: Gal(a1-3)Gal(b1-4)[Fuc(a1-3)]GlcNAc
# How it was run: as §1
# [10] = biological target: Gal(a1-3)Gal(b1-4)[Fuc(a1-3)]GlcNAc(b1-2)Man(a1-3)[Gal(a1-3)Gal(b1-4)[Fuc(a1-3)]GlcNAc(b1-2)Man(a1-6)]Man(b1-4)GlcNAc(b1-4)GlcNAc
# How it was run: as §1
# [11] = biological target: Gal(a1-3)GalNAc
# How it was run: as §1
# [12] = biological target: Gal(a1-3)[Gal(a1-4)]Gal(b1-4)GlcNAc
# How it was run: as §1
# [13] = biological target: Gal(a1-4)Gal(b1-3)GlcNAc(b1-2)Man(a1-3)[Gal(a1-4)Gal(b1-3)GlcNAc(b1-2)Man(a1-6)]Man(b1-4)GlcNAc(b1-4)GlcNAc
# How it was run: as §1
# [14] = biological target: Gal(a1-4)Gal(b1-4)Glc
# How it was run: as §1
# [15] = biological target: Gal(a1-4)Gal(b1-4)GlcNAc
# How it was run: as §1
# [16] = biological target: Gal(a1-4)Gal(b1-4)GlcNAc(b1-2)Man(a1-3)[Gal(a1-4)Gal(b1-4)GlcNAc(b1-2)Man(a1-6)]Man(b1-4)GlcNAc(b1-4)GlcNAc
# How it was run: as §1
# [17] = biological target: Gal(a1-4)Gal(b1-4)GlcNAc(b1-3)Gal(b1-4)Glc
# How it was run: as §1
# [18] = biological target: Gal(a1-4)GlcNAc
# How it was run: as §1
# [19] = biological target: Gal(a1-6)Glc
# How it was run: as §1
# [20] = biological target: Gal(b1-2)Gal
# How it was run: as §1
# [21] = biological target: Gal(b1-3)Gal
# How it was run: as §1
# [22] = biological target: Gal(b1-3)Gal(b1-4)GlcNAc
# How it was run: as §1
# [23] = biological target: Gal(b1-3)GalNAc
# How it was run: as §1
# [24] = biological target: Gal(b1-3)GalNAc(a1-3)[Fuc(a1-2)]Gal(b1-4)Glc
# How it was run: as §1
# [25] = biological target: Gal(b1-3)GalNAc(a1-3)[Fuc(a1-2)]Gal(b1-4)GlcNAc
# How it was run: as §1
# [26] = biological target: Gal(b1-3)GalNAc(b1-3)Gal
# How it was run: as §1
# [27] = biological target: Gal(b1-3)GalNAc(b1-3)Gal(a1-4)Gal(b1-4)Glc
# How it was run: as §1
# [28] = biological target: Gal(b1-3)GalNAc(b1-4)Gal(b1-4)Glc
# How it was run: as §1
# [29] = biological target: Gal(b1-3)GalNAc(b1-4)[Neu5Ac(a2-3)]Gal(b1-4)Glc
# How it was run: as §1
# [30] = biological target: Gal(b1-3)GlcNAc
# How it was run: as §1
# [31] = biological target: Gal(b1-3)GlcNAc(a1-3)Gal(b1-4)GlcNAc
# How it was run: as §1
# [32] = biological target: Gal(b1-3)GlcNAc(a1-6)Gal(b1-4)GlcNAc
# How it was run: as §1
# [33] = biological target: Gal(b1-3)GlcNAc(b1-2)Man
# How it was run: as §1
# [34] = biological target: Gal(b1-3)GlcNAc(b1-2)Man(a1-3)[Gal(b1-3)GlcNAc(b1-2)Man(a1-6)]Man(b1-4)GlcNAc(b1-4)GlcNAc
# How it was run: as §1
# [35] = biological target: Gal(b1-3)GlcNAc(b1-2)Man(a1-3)[Gal(b1-3)GlcNAc(b1-2)Man(a1-6)]Man(b1-4)GlcNAc(b1-4)[Fuc(a1-6)]GlcNAc
# How it was run: as §1
# [36] = biological target: Gal(b1-3)GlcNAc(b1-2)Man(a1-3)[GlcNAc(b1-4)][Gal(b1-3)GlcNAc(b1-2)Man(a1-6)]Man(b1-4)GlcNAc(b1-4)GlcNAc
# How it was run: as §1
# [37] = biological target: Gal(b1-3)GlcNAc(b1-2)[Gal(b1-3)GlcNAc(b1-6)]Man(a1-6)[Gal(b1-3)GlcNAc(b1-2)Man(a1-3)]Man(b1-4)GlcNAc(b1-4)GlcNAc
# How it was run: as §1
binder,measurement,setting,value
GSL-I (Griffonia simplicifolia) (protein) FNLPNFWSDVKDNIIFQGDANTTAGTLQLCKTNQYGNPLQYRAGRALYSDPVQLWDNKTGSVASFYTEFTFFLKITGDGPADGLAFFLAPPDSDVKDAGAYLGLFNKSTATQPSKNQVVAVEFDTWKNTDFPEPSYRHIGINVNSIVSVATKRWEDSDIFSGKIATARISYDGSAKILTVVLSYPDGADYILSHSVDLSKNLPNPIRVGISASTGANQFLTVYVLSWRFSSALQSTSVNAAMGPEIIRTVV,glycan array binding signal (z-score),[1],0
same,glycan array binding signal (z-score),[2],0.379
same,glycan array binding signal (z-score),[3],0.241
same,glycan array binding signal (z-score),[4],1.43
same,glycan array binding signal (z-score),[5],0.182
same,glycan array binding signal (z-score),[6],5.7
same,glycan array binding signal (z-score),[7],0.375
same,glycan array binding signal (z-score),[8],0.752
same,glycan array binding signal (z-score),[9],3.4
same,glycan array binding signal (z-score),[10],0.283
same,glycan array binding signal (z-score),[11],-0.09
same,glycan array binding signal (z-score),[12],1.01
same,glycan array binding signal (z-score),[13],9.69
same,glycan array binding signal (z-score),[14],1.26
same,glycan array binding signal (z-score),[15],1.82
same,glycan array binding signal (z-score),[16],3.15
same,glycan array binding signal (z-score),[17],1.54
same,glycan array binding signal (z-score),[18],4.53
same,glycan array binding signal (z-score),[19],-0.12
same,glycan array binding signal (z-score),[20],-0.261
same,glycan array binding signal (z-score),[21],-0.204
same,glycan array binding signal (z-score),[22],-0.214
same,glycan array binding signal (z-score),[23],-0.165
same,glycan array binding signal (z-score),[24],-0.176
same,glycan array binding signal (z-score),[25],-0.173
same,glycan array binding signal (z-score),[26],-0.276
same,glycan array binding signal (z-score),[27],-0.208
same,glycan array binding signal (z-score),[28],-0.115
same,glycan array binding signal (z-score),[29],-0.197
same,glycan array binding signal (z-score),[30],-0.197
same,glycan array binding signal (z-score),[31],-0.29
same,glycan array binding signal (z-score),[32],-0.28
same,glycan array binding signal (z-score),[33],-0.124
same,glycan array binding signal (z-score),[34],-0.092
same,glycan array binding signal (z-score),[35],-0.147
same,glycan array binding signal (z-score),[36],-0.271
same,glycan array binding signal (z-score),[37],0.055
